Experimental data published in PubChem BioAssay AID588855 (National Center for Advancing Translational Sciences (NCATS), 2011).
About 5,000 (1.2%) of roughly 410,000 compounds were called active. Inconclusive means that the source gave no clear call. Such entries were picked first, then a sample of the others. The call rests on the fitted dose curve; in most records, active means well fitted inhibition curve with a large enough effect; inconclusive means small, poorly fitted or top-dose-only effect; inactive means no such curve, though single readings can be large or run the other way. A potency beside an inconclusive call is a rough fit, not a confirmed value.

Assay: qHTS for Inhibitors of TGF-b; further: nearly all actives have a fitted effect of over 65% in size
Settings: HepG2 CAGA-GFP TGF-b/SMAD3 reporter, GFP fluorescence, 18 h, TGF-beta stimulated, 500 pg/mL final; series mostly up to 46.1 µM; activity, negative = inhibition: at the top concentration
Summary of the method: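 HEPG2 CAGA-GFP, 1000 cells/well; 2 h settle, 37 C; cpd via pin tool; TGF-b 500 pg/mL final; 18 h, 37 C; GFP imaging ex488/em500-530; %Activity normalised to -TGF-b and +DMSO controls; CRC fit, curve class.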
On the % scale 0 is the no-effect control and ±100 the full control effect; potency means the concentration at half of the fitted maximal effect; tags describe the fitted curve by direction and shape.

Compound	activity, negative = inhibition	Potency
CCC(C)(C)n1nnnc1C(c1ccc2ncccc2c1)N1CCCC(C)C1 (stereo not drawn)	inactive: -0.45%	–
COc1cc2c(NC3CCN(C)CC3)nc(N3CCCN(C)CC3)nc2cc1OCC1CCCCN1 (stereo not drawn)	–	active: 11.2 µM
Cc1ccc(-c2csc(NC(=O)CCNC(=O)c3ccccc3Cl)n2)cc1	–	inconclusive: 11.2 µM [inhibitor, single point]
Cn1c(=O)n(C)c2cc([N+](=O)[O-])c(N3CCN(S(=O)(=O)c4ccc5ccccc5c4)CC3)cc21	–	inconclusive: 3.16 µM [inhibitor, partial curve, poor fit]
O=C(c1ccncc1)N1N=C2CCCCCC2C1(O)C(F)(F)F (stereo not drawn)	inactive: 5.08%	–
Cc1noc(C)c1NC(=O)N(C)C[C@@H]1Oc2ccc(NC(=O)C3CCCCC3)cc2C(=O)N([C@@H](C)CO)C[C@H]1C	–	inconclusive: 5.01 µM [inhibitor, single point]
O=C(c1ccc2c(c1)N(Cc1c(F)cccc1Cl)C(=O)c1ccccc1S2)N1CCOCC1	–	inconclusive: 7.94 µM [inhibitor, partial curve, poor fit]
CC(C)[C@H](NC(=O)c1ccc(Cl)cc1Cl)C(=O)NNC(=O)c1ccco1	inactive: -0.343%	–
O=c1c2ccccc2c(-c2ccccc2)nn1Cc1c(Cl)cccc1Cl	–	inconclusive: 35.5 µM [inhibitor, single point]
CCOc1cccc(C2c3[nH]c4ccccc4c3CCN2C(=O)CSCc2ccc(F)cc2)c1 (stereo not drawn)	–	inconclusive: 4.47 µM [inhibitor, full curve]
CCc1cccc(NC(=O)C2Cc3ccccc3N2C(=O)c2ccccc2)c1 (stereo not drawn)	inactive: 1.57%	–
O=C(COC(=O)/C=C/c1ccco1)NCCc1ccccc1	inactive: -24%	–
C[C@]12c3[nH]c4ccccc4c3CCN1C(=O)C(CC(=O)NCC13CC4CC(CC(C4)C1)C3)C[C@@H]2C(=O)N1CCCCC1 (stereo partly drawn)	–	inconclusive: 15.8 µM [inhibitor, single point]
COc1ccccc1N(CC(=O)Nc1ccc2c(c1)OCO2)S(=O)(=O)c1ccc(C)cc1	–	inconclusive: 1.41 µM [inhibitor, full curve, poor fit]
O=C(CCc1nc2ccccc2[nH]1)Nc1ccc(F)cc1	inactive: -2.91%	–
COCCOCCn1c(/C=C/c2ccccc2)nc2ccccc21	–	inconclusive: 35.5 µM [inhibitor, single point]
Cc1nn2c(-c3ccncc3)nnc2c2ccccc12	–	inconclusive: 1.12 µM [inhibitor, full curve, poor fit]
COc1ccc(CCNC(c2ccc(F)cc2)c2nnc(-c3ccccc3Cl)o2)cc1OC (stereo not drawn)	–	active: 17.8 µM
